Laboratory results: PubChem BioAssay AID1745845 (National Center for Advancing Translational Sciences (NCATS), 2022)
Hit rate of the full screen: of about 360,000 compounds, about 2,600 (0.72%) were called active. The shares of active, inactive and inconclusive entries below differ from those in the screen. The call rests on the fitted dose curve; in most records, active means well fitted inhibition curve with a large enough effect; inconclusive means small, poorly fitted or top-dose-only effect; inactive means no such curve, though single readings can be large or run the other way. A potency beside an inconclusive call is a rough fit, not a confirmed value.

Experiment: Primary qHTS for Inhibitors of ATXN expression; further: nearly all actives have a fitted effect of over 55% in size
Settings: HEK-293 ATXN2-luciferase reporter, luminescence, 24 h; activity change, negative = inhibition: at 57 µM (top of the series)
Summary of the method: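 ATXN2-luciferase reporter cells (luciferase flanked by upstream and downstream ATXN2 gene portions) were treated 24 h at 37 °C with compounds at up to 57 uM. SteadyGlo luminescence gave expression; GF-AFC fluorescence gave viability.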
On the % scale 0 is the no-effect control and ±100 the full control effect; potency means the concentration at half of the fitted maximal effect; tags describe the fitted curve by direction and shape.

| Compound | Potency | activity change, negative = inhibition |
| --- | --- | --- |
| O=c1c2ccccc2nc(SCc2nnc(-c3ccccc3)o2)n1-c1ccccc1 | inconclusive: 8.91 µM [inhibitor, partial curve, poor fit] |  |
| CC(C)C[C@@H](COCc1ccc(Cl)cc1)N1CCN(C(=O)c2ccc(C(F)(F)F)cc2)CCC1=O | inconclusive: 35.5 µM [inhibitor, single point] |  |
| Cc1ccc(CN2CC(C(=O)Nc3ncc(C)s3)CC2=O)cc1 (stereo not drawn) | active: 15.8 µM |  |
| CCOC(=O)c1ccc(N2C(=O)c3n[nH]c(-c4ccco4)c3C2c2ccc(F)cc2)cc1 (stereo not drawn) | inconclusive: 39.8 µM [inhibitor, single point] |  |
| CC(C)OCc1cc(CN2CCN(c3ccccc3)CC2)c(O)c2ncccc12 | active: 1.26 µM |  |
| Cc1ccc(CNC(=O)CN2CCN(Cc3ccc(F)cc3)C2=O)cc1 | inactive |  |
| Cc1ccc(Nc2nc(NCCO)c3ccccc3n2)cc1C | inactive |  |
| COc1ccc(NC(=O)c2c(NCc3cccc(F)c3)sc3c2CCCC3)c(OC)c1 | inconclusive: 39.8 µM [inhibitor, single point] |  |
| NC(=S)NNc1cccc2cccnc12 | inconclusive: 23.8 µM [inhibitor, partial curve, poor fit] |  |
| O=[N+]([O-])c1cc(-c2n(-c3ccccn3)c3ccccc3[n+]2-c2ccccn2)ccc1Cl | inconclusive: 18.9 µM [inhibitor, single point] |  |
| Cc1ccc(Nc2nc(-c3ccc(S(=O)(=O)N4CCOCC4)cc3)cs2)cc1 | inconclusive: 28.2 µM [inhibitor, single point] |  |
| O=C(NNc1nc2c(F)cc(F)cc2s1)c1ccccc1 |  | inactive: 0.976% [at 11.3 µM] |
| O=C(COC(=O)CCCOc1ccc(Cl)cc1Cl)NCc1ccc(F)cc1 | inconclusive: 29.9 µM [inhibitor, partial curve, poor fit] |  |
| Oc1c(N=NC(=S)Nc2ccccc2F)c2ccccc2n1Cc1ccccc1 | inconclusive: 9.47 µM [inhibitor, partial curve, poor fit] |  |
| COc1cccc(CN(C)C(=O)CNC(=O)c2ccc(-c3ccccc3)cc2)c1OC | inconclusive: 8.91 µM [inhibitor, partial curve, poor fit] |  |
| C[C@@H]1CN([C@H](C)CO)S(=O)(=O)c2ccc(Br)cc2O[C@@H]1CN(C)Cc1ccc(-c2ccccc2)cc1 | inconclusive: 25.1 µM [inhibitor, single point] |  |
| CCc1nc2ccc(C(=O)Nc3ccc4c(c3)OCC(=O)N4)cn2c1N(CC)Cc1cccc(Br)c1 | inconclusive: 35.5 µM [inhibitor, partial curve, poor fit] |  |
| COc1ccc(-c2csc(N(CCCN(C)C)C(=O)c3cccs3)n2)cc1 | inactive |  |
| Cc1c(NC(=O)CN2CCN(c3cccc(Cl)c3)CC2)c(=O)n(-c2ccccc2)n1C | inactive |  |
| CCOC(=O)C1=C(CN(CC)Cc2ccccc2)NC(=O)NC1c1ccc(OC(C)C)cc1 (stereo not drawn) | inconclusive: 39.8 µM [inhibitor, single point] |  |
| NC(Cc1ccc(F)cc1)c1csc(Nc2cc(NCc3ccco3)ncn2)n1 (stereo not drawn) | active: 17.8 µM |  |
| Cc1ccc(NC(=O)CSc2nc(NS(=O)(=O)c3ccccc3)cc(=O)[nH]2)cc1 | inactive |  |
| CC(C)N(C(=O)CSc1nc2ccccc2n1-c1ccccc1)C(C)C | inactive |  |
| COc1cccc(CC(=O)n2nc(N)c3cc4ccc(OC)cc4nc32)c1 | inconclusive: 8.91 µM [inhibitor, partial curve, poor fit] |  |
| O=C(NCCc1ccccc1)c1cccc(NC(=O)C2CCCC2)c1 | inactive |  |
| CC1CCc2cc(F)ccc2N1C(=O)CSc1nnc(-c2cccs2)n1C (stereo not drawn) | inactive |  |
| CCOc1cc(N2CCOCC2)c(OCC)cc1NC(=O)Cc1ccccc1OC | inactive |  |

| Compound | Potency | activity change, negative = inhibition |
| --- | --- | --- |
| Cc1cccc(C(=O)Nc2nc(-c3nnn(-c4cc(F)ccc4F)c3C)ns2)c1 | inconclusive: 28.2 µM [inhibitor, single point] |  |
| Cc1ccc(-n2cc(CN3CCC(O)(c4ccccn4)CC3)c(-c3ccc(F)cc3)n2)cc1 | inactive |  |
| O=C(N/N=C/c1cc(Br)c(Br)s1)c1ccncc1 | inconclusive: 11.9 µM [inhibitor, partial curve, poor fit] |  |
| COc1ccc2c(c1)CCc1cc(C(=O)N3CCN(c4ccc(N5CCOCC5)nn4)CC3)sc1-2 | inconclusive: 11.2 µM [inhibitor, partial curve] |  |
| CC1=CC(C)[C@H](/C=N/n2c(=O)[nH]c3c([nH]c4ccc(Br)cc43)c2=O)C(C)C1 (stereo partly drawn) | inconclusive: 23.8 µM [inhibitor, partial curve, poor fit] |  |
| C/C(=N\NC(=O)c1ccc2c(c1)OCCO2)c1ccccc1 | inconclusive: 15.8 µM [inhibitor, single point] |  |
| COc1ccc(NS(=O)(=O)c2cc(NC(=O)C3CC3)ccc2N2CCCCC2)cc1 | inconclusive: 20 µM [inhibitor, partial curve] |  |
| CN1CCN(c2ccc(Cl)cc2NC(=O)c2ccc(S(=O)(=O)N3CCCCCC3)cc2)CC1 | inconclusive: 39.8 µM [inhibitor, partial curve, poor fit] |  |
| C=C[C@@H]1c2ccccc2N(S(=O)(=O)c2ccc(C)cc2)[C@H](c2ccc(OC(C)=O)cc2)C1(C#N)C#N | inconclusive: 39.8 µM [inhibitor, single point] |  |
| C=CCc1cccc(/C=N/NC(=O)c2ccc3nc[nH]c3c2)c1O | active: 10 µM |  |
| COc1ccc(OC)c(S(=O)(=O)N2CC=C(c3c(C)n(CC(=O)N4CCCC4)c4ccccc34)CC2)c1 | inactive |  |
| OCc1ccccc1N=Cc1cccnc1 | inconclusive: 10 µM [inhibitor, partial curve] |  |
| COc1cccc(N2CCN(S(=O)(=O)c3ccc4c(c3)CCCN4C(C)=O)CC2)c1 | inactive |  |
| CCCCN1CCc2nc(N3CCN(C)CC3)ncc2C1 | inactive |  |
| COc1cc(F)ccc1-c1csc(C(C)(O)c2ccc(F)c(F)c2)n1 (stereo not drawn) | inconclusive: 39.8 µM [inhibitor, single point] |  |
| Cc1ccc(Cc2nc3ccccc3nc2SCC(=O)N2CCCCC2C)cc1 (stereo not drawn) | inconclusive: 25.1 µM [inhibitor, single point] |  |
| Oc1ccc(NCc2ccc(OCc3ccccc3Cl)cc2)cc1 | inconclusive: 31.6 µM [inhibitor, single point] |  |
| N#Cc1ccccc1NC(=O)COc1c(Br)cc(Br)c2cccnc12 | inactive |  |
| CCOc1cc(CNc2ccc(O)cc2)cc(Br)c1OCc1ccccc1F | inconclusive: 39.8 µM [inhibitor, single point] |  |
| Cc1ccc(-c2c[n+]3c(n2-c2ccccc2)SCC3)cc1 | inconclusive: 14.1 µM [inhibitor, partial curve, poor fit] |  |
| COc1ccc(C(=O)NCCSc2ccccn2)cc1 | inactive |  |
| O=C(NC1CCCCC1)c1ccc(CSc2nc3cccnc3n2Cc2ccccc2F)cc1 | inconclusive: 22.4 µM [inhibitor, partial curve, poor fit] |  |
| CCCC(=O)OCCNc1cc(Sc2nc3ccccc3[nH]2)c2nonc2c1[N+](=O)[O-] | inconclusive: 35.5 µM [inhibitor, single point] |  |
| Cc1ccc(Cn2c(CCCNC(=O)C3CCCCC3)nc3ccccc32)cc1 | inconclusive: 14.1 µM [inhibitor, partial curve, poor fit] |  |
| C#CCNC(=O)C[C@@H]1C[C@@]2(C(=O)OCC)CCCC=C2N(CCCCCCCC)C1=O | inconclusive: 39.8 µM [inhibitor, single point] |  |
| Cc1cc(C(C)(C)C)cc(C)c1Cn1c2[n+](c3ccc(C(F)(F)F)cc31)CCCCC2 | inconclusive: 33.6 µM [inhibitor, single point] |  |
